# Assay results: the supplement of paper PMC8728848
# The list shows a part of the results.
# B1: Banana lectin (Musa acuminata) (protein)
# chain: MNGAIKVGAWGGNGGSAFDMGPAYRIISVKIFSGDVVDGVDVTFTYYGKTETRHYGGSGGTPHEIVLQEGEYLVGMAGEVANYHGAVVLGKLGFSTNKKAYGPFGNTGGTPFSLPIAAGKISGFFGRGGKFLDAIGVYLEPLEHHHHHH
# Columns and labels:
# Experiment in all cases: glycan array binding signal (z-score within array); higher = stronger binding
# Settings in all cases: glycan notation: IUPAC condensed, linker removed
# [1] = target: GlcNAc(b1-2)Man(a1-3)[GlcNAc(b1-2)Man(a1-6)]Man(b1-4)GlcNAc(b1-4)[Fuc(a1-6)]GlcNAc
# In short: (§1)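 Columns mapping to the same glycan were averaged after glycan names were converted to IUPAC-condensed notation. The data come from 3228 arrays in the Consortium for Functional Glycomics database, limited to those with an available protein sequence. Binding is reported as a within-array Z-score averaged across arrays of one protein sequence and across linkers.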
# [2] = target: GlcNAc(b1-2)Man(a1-3)[GlcNAc(b1-2)Man(a1-6)][GlcNAc(b1-4)]Man(b1-4)GlcNAc(b1-4)GlcNAc
# In short: as §1
# [3] = target: GlcNAc(b1-2)Man(a1-3)[GlcNAc(b1-4)][GlcNAc(b1-2)Man(a1-6)]Man(b1-4)GlcNAc(b1-4)GlcNAc
# In short: as §1
# [4] = target: GlcNAc(b1-2)Man(a1-3)[GlcNAc(b1-4)][GlcNAc(b1-2)Man(a1-6)]Man(b1-4)GlcNAc(b1-4)[Fuc(a1-6)]GlcNAc
# In short: as §1
# [5] = target: GlcNAc(b1-2)Man(a1-3)[Man(a1-3)[Man(a1-6)]Man(a1-6)][GlcNAc(b1-4)]Man(b1-4)GlcNAc(b1-4)GlcNAc
# In short: as §1
# [6] = target: GlcNAc(b1-2)[GlcNAc(b1-4)]Man(a1-3)[GlcNAc(b1-2)Man(a1-6)]Man(b1-4)GlcNAc(b1-4)GlcNAc
# In short: as §1
# [7] = target: GlcNAc(b1-2)[GlcNAc(b1-4)]Man(a1-3)[GlcNAc(b1-2)Man(a1-6)][GlcNAc(b1-4)]Man(b1-4)GlcNAc(b1-4)GlcNAc
# In short: as §1
# [8] = target: GlcNAc(b1-2)[GlcNAc(b1-4)]Man(a1-3)[GlcNAc(b1-2)[GlcNAc(b1-4)][GlcNAc(b1-6)]Man(a1-6)][GlcNAc(b1-4)]Man(b1-4)GlcNAc(b1-4)GlcNAc
# In short: as §1
# [9] = target: GlcNAc(b1-2)[GlcNAc(b1-4)]Man(a1-3)[GlcNAc(b1-2)[GlcNAc(b1-6)]Man(a1-6)]Man(b1-4)GlcNAc(b1-4)GlcNAc
# In short: as §1
# [10] = target: GlcNAc(b1-2)[GlcNAc(b1-4)]Man(a1-3)[GlcNAc(b1-4)][GlcNAc(b1-2)Man(a1-6)]Man(b1-4)GlcNAc(b1-4)GlcNAc
# In short: as §1
# [11] = target: GlcNAc(b1-2)[GlcNAc(b1-4)]Man(a1-3)[GlcNAc(b1-4)][GlcNAc(b1-2)[GlcNAc(b1-6)]Man(a1-6)]Man(b1-4)GlcNAc(b1-4)GlcNAc
# In short: as §1
# [12] = target: GlcNAc(b1-2)[GlcNAc(b1-4)]Man(a1-3)[GlcNAc(b1-4)][GlcNAc(b1-2)[GlcNAc(b1-6)]Man(a1-6)]Man(b1-4)GlcNAc(b1-4)[Fuc(a1-6)]GlcNAc
# In short: as §1
# [13] = target: GlcNAc(b1-2)[GlcNAc(b1-6)]Man(a1-6)[GlcNAc(b1-2)Man(a1-3)]Man(b1-4)GlcNAc(b1-4)GlcNAc
# In short: as §1
# [14] = target: GlcNAc(b1-2)[GlcNAc(b1-6)]Man(a1-6)[GlcNAc(b1-2)Man(a1-3)]Man(b1-4)GlcNAc(b1-4)[Fuc(a1-6)]GlcNAc
# In short: as §1
# [15] = target: GlcNAc(b1-2)[GlcNAc(b1-6)]Man(a1-6)[GlcNAc(b1-4)][GlcNAc(b1-2)Man(a1-3)]Man(b1-4)GlcNAc(b1-4)GlcNAc
# In short: as §1
# GlcNAc(b1-3)Fuc = target: GlcNAc(b1-3)Fuc
# In short: as §1
# GlcNAc(b1-3)Gal = target: GlcNAc(b1-3)Gal
# In short: as §1
# [16] = target: GlcNAc(b1-3)Gal(b1-3)GalNAc
# In short: as §1
# GlcNAc(b1-3)Gal(b1-4)Glc = target: GlcNAc(b1-3)Gal(b1-4)Glc
# In short: as §1
# [17] = target: GlcNAc(b1-3)Gal(b1-4)GlcNAc
# In short: as §1
# [18] = target: GlcNAc(b1-3)Gal(b1-4)GlcNAc(b1-2)Man(a1-3)[GlcNAc(b1-3)Gal(b1-4)GlcNAc(b1-2)Man(a1-6)]Man(b1-4)GlcNAc(b1-4)GlcNAc
# In short: as §1
# [19] = target: GlcNAc(b1-3)Gal(b1-4)GlcNAc(b1-2)Man(a1-3)[GlcNAc(b1-3)Gal(b1-4)GlcNAc(b1-2)Man(a1-6)]Man(b1-4)GlcNAc(b1-4)[Fuc(a1-6)]GlcNAc
# In short: as §1
binder,measurement,setting,value
B1,glycan array binding signal (z-score),[1],-0.327
same,glycan array binding signal (z-score),[2],-0.653
same,glycan array binding signal (z-score),[3],-0.209
same,glycan array binding signal (z-score),[4],-0.216
same,glycan array binding signal (z-score),[5],-0.039
same,glycan array binding signal (z-score),[6],-0.204
same,glycan array binding signal (z-score),[7],-0.975
same,glycan array binding signal (z-score),[8],-0.99
same,glycan array binding signal (z-score),[9],-0.985
same,glycan array binding signal (z-score),[10],-0.206
same,glycan array binding signal (z-score),[11],-0.157
same,glycan array binding signal (z-score),[12],-0.22
same,glycan array binding signal (z-score),[13],-0.095
same,glycan array binding signal (z-score),[14],-0.141
same,glycan array binding signal (z-score),[15],-0.168
same,glycan array binding signal (z-score),GlcNAc(b1-3)Fuc,-0.208
same,glycan array binding signal (z-score),GlcNAc(b1-3)Gal,-0.178
same,glycan array binding signal (z-score),[16],-0.187
same,glycan array binding signal (z-score),GlcNAc(b1-3)Gal(b1-4)Glc,-0.206
same,glycan array binding signal (z-score),[17],-0.212
same,glycan array binding signal (z-score),[18],-0.123
same,glycan array binding signal (z-score),[19],-0.127
